Some of the results follow. The energies were worked out here from pooled read counts, against the library average; single values are noisy.
These sequences were tested against T1, Pho4 (S. cerevisiae) (UniProt P07270) (assay: relative binding free energy (BET-seq); higher = weaker binding). Settings: reference: library average.
T1 sequence: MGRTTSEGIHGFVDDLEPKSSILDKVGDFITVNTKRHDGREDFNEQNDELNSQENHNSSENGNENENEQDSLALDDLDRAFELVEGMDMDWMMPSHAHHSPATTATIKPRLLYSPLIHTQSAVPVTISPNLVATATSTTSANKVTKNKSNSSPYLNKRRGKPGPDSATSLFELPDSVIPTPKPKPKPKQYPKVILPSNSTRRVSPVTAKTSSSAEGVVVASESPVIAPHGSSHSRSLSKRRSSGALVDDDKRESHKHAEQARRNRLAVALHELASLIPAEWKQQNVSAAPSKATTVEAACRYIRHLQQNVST

Which “relative binding free energy” value does the source give for GGCGGCACGTGTGTTT here?
The value was 0.11 kcal/mol.

Which “relative binding free energy” value does the source give for TGGGTCACGTGGTGAA here?
The value was 0.13 kcal/mol.

For TAAACCACGTGGATGT, which “relative binding free energy” value is on record?
The value was 0.1 kcal/mol.

With GATTGCACGTGTTGCT as the sequence, how does the “relative binding free energy” value read?
Its value is 0.08 kcal/mol.

How did the “relative binding free energy” value turn out when ATGGGCACGTGTTTTA was run?
The value was -0.13 kcal/mol.

For TGGGGCACGTGTGCAT, which “relative binding free energy” value is on record?
The value was -0.17 kcal/mol.

For TGGGCCACGTGTGGCA, which “relative binding free energy” value is on record?
The value was -0.07 kcal/mol.

With GGTGGCACGTGTTGGC as the sequence, how does the “relative binding free energy” value read?
The value was -0.05 kcal/mol.

How did the “relative binding free energy” value turn out when CTTGACACGTGGAGGT was run?
Its value is 0.08 kcal/mol.

TTAAGCACGTGTTGAA was tested. Which “relative binding free energy” value did it give?
Its value is -0.04 kcal/mol.

Which “relative binding free energy” value does the source give for TATGTCACGTGACGTT here?
The value was 0.22 kcal/mol.

TATTCCACGTGGTAGT was tested. Which “relative binding free energy” value did it give?
Its value is -0.03 kcal/mol.

For CGGATCACGTGTGTTG, which “relative binding free energy” value is on record?
Its value is 0.2 kcal/mol.

How did the “relative binding free energy” value turn out when GGAGGCACGTGGCGAT was run?
The value was -0.01 kcal/mol.

With GGGTCCACGTGGTTAG as the sequence, how does the “relative binding free energy” value read?
Its value is -0.02 kcal/mol.

How did the “relative binding free energy” value turn out when ATGGCCACGTGTGGCG was run?
The value was -0.1 kcal/mol.

How did the “relative binding free energy” value turn out when CGCAGCACGTGTGGTA was run?
Its value is 0.14 kcal/mol.

For TACGGCACGTGGGGTT, which “relative binding free energy” value is on record?
Its value is -0.31 kcal/mol.

For TGAGGCACGTGCAGGA, which “relative binding free energy” value is on record?
The value was -0.06 kcal/mol.

AATTACACGTGAAGGG was tested. Which “relative binding free energy” value did it give?
Its value is 0.3 kcal/mol.

For TGGCGCACGTGTATAG, which “relative binding free energy” value is on record?
Its value is -0.16 kcal/mol.

Which “relative binding free energy” value does the source give for TGAAGCACGTGTATGG here?
The value was 0.02 kcal/mol.

For TTATTCACGTGATGGA, which “relative binding free energy” value is on record?
The value was 0.09 kcal/mol.

How did the “relative binding free energy” value turn out when TTTGGCACGTGGTATG was run?
The value was -0.12 kcal/mol.

Which “relative binding free energy” value does the source give for GGGGCCACGTGAGTGT here?
Its value is 0.19 kcal/mol.

For TTTGTCACGTGCCAGG, which “relative binding free energy” value is on record?
Its value is 0.15 kcal/mol.

With GGGATCACGTGGACTT as the sequence, how does the “relative binding free energy” value read?
The value was 0.39 kcal/mol.

TCGGGCACGTGGGGTT was tested. Which “relative binding free energy” value did it give?
The value was -0.24 kcal/mol.

How did the “relative binding free energy” value turn out when GGAAACACGTGAGTTG was run?
Its value is 0.35 kcal/mol.

Which “relative binding free energy” value does the source give for AACGTCACGTGTTTTG here?
Its value is 0.03 kcal/mol.

Which “relative binding free energy” value does the source give for CGGTGCACGTGGTATT here?
The value was -0.2 kcal/mol.

Which “relative binding free energy” value does the source give for GCGTTCACGTGTTCGT here?
The value was 0.18 kcal/mol.

Which “relative binding free energy” value does the source give for ATTTGCACGTGTGTTG here?
The value was 0.02 kcal/mol.

Which “relative binding free energy” value does the source give for TTAAGCACGTGGAGAG here?
The value was -0.16 kcal/mol.

How did the “relative binding free energy” value turn out when GCGTACACGTGTTAGG was run?
Its value is 0.21 kcal/mol.

How did the “relative binding free energy” value turn out when GGAGTCACGTGCTTGT was run?
The value was 0.18 kcal/mol.

For CGATTCACGTGTTTGG, which “relative binding free energy” value is on record?
Its value is 0.34 kcal/mol.

Which “relative binding free energy” value does the source give for TTAATCACGTGCATTT here?
Its value is 0.28 kcal/mol.

For GATTTCACGTGGCAGG, which “relative binding free energy” value is on record?
The value was 0.31 kcal/mol.

How did the “relative binding free energy” value turn out when TTAGGCACGTGGTAAT was run?
Its value is -0.11 kcal/mol.

For TATATCACGTGAGCGT, which “relative binding free energy” value is on record?
Its value is 0.14 kcal/mol.

How did the “relative binding free energy” value turn out when TTTAACACGTGGTTCG was run?
The value was 0 kcal/mol.

With TTGATCACGTGCTTTG as the sequence, how does the “relative binding free energy” value read?
Its value is 0.03 kcal/mol.

With GGCAGCACGTGGAGGA as the sequence, how does the “relative binding free energy” value read?
Its value is 0.05 kcal/mol.

TCAATCACGTGCGGGG was tested. Which “relative binding free energy” value did it give?
Its value is 0.18 kcal/mol.

How did the “relative binding free energy” value turn out when ATTAGCACGTGTTGTT was run?
Its value is -0.01 kcal/mol.

Which “relative binding free energy” value does the source give for AGTGTCACGTGCCGGT here?
The value was -0.05 kcal/mol.

ATCGTCACGTGTTGGA was tested. Which “relative binding free energy” value did it give?
Its value is 0.16 kcal/mol.

How did the “relative binding free energy” value turn out when GTGGGCACGTGGTGAT was run?
The value was -0.05 kcal/mol.

TGTAACACGTGGGTTT was tested. Which “relative binding free energy” value did it give?
The value was -0.03 kcal/mol.

For CTGTTCACGTGTGGGG, which “relative binding free energy” value is on record?
Its value is 0.25 kcal/mol.

Which “relative binding free energy” value does the source give for TGAATCACGTGTTAAT here?
Its value is 0.15 kcal/mol.

Which “relative binding free energy” value does the source give for AAATACACGTGTCGGG here?
Its value is 0.15 kcal/mol.

How did the “relative binding free energy” value turn out when TGTTACACGTGTCAGG was run?
The value was 0.07 kcal/mol.

How did the “relative binding free energy” value turn out when GGTACCACGTGGTGTT was run?
Its value is -0.04 kcal/mol.

How did the “relative binding free energy” value turn out when TAACGCACGTGGGGGC was run?
The value was -0.29 kcal/mol.

Which “relative binding free energy” value does the source give for TATTTCACGTGTTAGC here?
The value was 0.29 kcal/mol.

How did the “relative binding free energy” value turn out when ATTAACACGTGAAGTA was run?
Its value is 0.35 kcal/mol.

Which “relative binding free energy” value does the source give for TCGGTCACGTGGGACG here?
The value was 0.04 kcal/mol.

GTGTGCACGTGTGGGG was tested. Which “relative binding free energy” value did it give?
Its value is 0.07 kcal/mol.

AAGGTCACGTGGGTCG was tested. Which “relative binding free energy” value did it give?
Its value is -0.02 kcal/mol.

AAGGGCACGTGGGGAT was tested. Which “relative binding free energy” value did it give?
Its value is -0.17 kcal/mol.

For TATGGCACGTGCTAGG, which “relative binding free energy” value is on record?
Its value is -0.1 kcal/mol.

TGAGGCACGTGAGGCG was tested. Which “relative binding free energy” value did it give?
The value was -0.01 kcal/mol.

For GTTCGCACGTGCGTGT, which “relative binding free energy” value is on record?
Its value is 0.13 kcal/mol.

GGGGCCACGTGCGGCT was tested. Which “relative binding free energy” value did it give?
The value was -0.11 kcal/mol.

How did the “relative binding free energy” value turn out when TAGGGCACGTGCGGCT was run?
The value was -0.18 kcal/mol.

GGGTACACGTGAGGGT was tested. Which “relative binding free energy” value did it give?
Its value is 0.39 kcal/mol.

GCGTGCACGTGGGTGC was tested. Which “relative binding free energy” value did it give?
The value was -0.15 kcal/mol.

For AGGGGCACGTGAAGTT, which “relative binding free energy” value is on record?
The value was 0.17 kcal/mol.

Which “relative binding free energy” value does the source give for GATTACACGTGTTTAT here?
The value was 0.23 kcal/mol.

Which “relative binding free energy” value does the source give for GTGGACACGTGTGGCT here?
The value was 0.13 kcal/mol.

For GCTGGCACGTGGTTTG, which “relative binding free energy” value is on record?
The value was -0.05 kcal/mol.

ACGGGCACGTGGTCTG was tested. Which “relative binding free energy” value did it give?
Its value is -0.16 kcal/mol.

For TGGATCACGTGGAGGG, which “relative binding free energy” value is on record?
The value was 0.14 kcal/mol.

With TAGTTCACGTGGCTGC as the sequence, how does the “relative binding free energy” value read?
The value was 0.33 kcal/mol.

Which “relative binding free energy” value does the source give for ATATTCACGTGCTTGG here?
The value was 0.36 kcal/mol.

For ATAAACACGTGGTTTT, which “relative binding free energy” value is on record?
The value was -0.12 kcal/mol.

TCAAGCACGTGTGTTG was tested. Which “relative binding free energy” value did it give?
The value was -0.01 kcal/mol.

For ATTGACACGTGCTGGG, which “relative binding free energy” value is on record?
The value was -0.11 kcal/mol.

How did the “relative binding free energy” value turn out when GGAAGCACGTGTTGGT was run?
Its value is -0.13 kcal/mol.

How did the “relative binding free energy” value turn out when GGAAGCACGTGTTCGT was run?
Its value is 0.02 kcal/mol.

Which “relative binding free energy” value does the source give for ATATACACGTGAGTGA here?
The value was 0.18 kcal/mol.

With AGCGACACGTGAGGTG as the sequence, how does the “relative binding free energy” value read?
The value was 0.15 kcal/mol.

GTGATCACGTGCGTCT was tested. Which “relative binding free energy” value did it give?
The value was 0.08 kcal/mol.

How did the “relative binding free energy” value turn out when TTGGTCACGTGTGTAT was run?
The value was 0.12 kcal/mol.

For GTGTACACGTGTATGT, which “relative binding free energy” value is on record?
The value was 0.08 kcal/mol.

ATACTCACGTGTGATT was tested. Which “relative binding free energy” value did it give?
The value was 0.2 kcal/mol.

With AAGGGCACGTGGTGAT as the sequence, how does the “relative binding free energy” value read?
Its value is -0.16 kcal/mol.

TAGCTCACGTGAGTGG was tested. Which “relative binding free energy” value did it give?
Its value is 0.23 kcal/mol.

How did the “relative binding free energy” value turn out when CTTCTCACGTGGGGTG was run?
Its value is -0.06 kcal/mol.

With TGGTACACGTGGCGGG as the sequence, how does the “relative binding free energy” value read?
Its value is 0 kcal/mol.

How did the “relative binding free energy” value turn out when CTTAGCACGTGCTGGT was run?
Its value is -0.05 kcal/mol.

For GTGGGCACGTGCTTAG, which “relative binding free energy” value is on record?
The value was -0.08 kcal/mol.

How did the “relative binding free energy” value turn out when CTGGTCACGTGCATGG was run?
The value was 0.06 kcal/mol.

How did the “relative binding free energy” value turn out when TATGTCACGTGGTTTA was run?
The value was 0.01 kcal/mol.

With GTGGGCACGTGTTATA as the sequence, how does the “relative binding free energy” value read?
Its value is -0.06 kcal/mol.

Which “relative binding free energy” value does the source give for ATTTCCACGTGGTTAT here?
The value was -0.03 kcal/mol.

TTGGGCACGTGGTCGT was tested. Which “relative binding free energy” value did it give?
Its value is -0.14 kcal/mol.

How did the “relative binding free energy” value turn out when ATTGTCACGTGTGAGA was run?
The value was 0.22 kcal/mol.

For ATAGCCACGTGTAGGG, which “relative binding free energy” value is on record?
The value was -0.06 kcal/mol.

With GAGGTCACGTGTGGGG as the sequence, how does the “relative binding free energy” value read?
The value was 0.18 kcal/mol.

With GTATACACGTGATAAT as the sequence, how does the “relative binding free energy” value read?
The value was 0.27 kcal/mol.

Which “relative binding free energy” value does the source give for AGCGCCACGTGTGGGG here?
Its value is -0.12 kcal/mol.

With GGGGTCACGTGGGATA as the sequence, how does the “relative binding free energy” value read?
Its value is 0.05 kcal/mol.

For ATGTGCACGTGCAGTT, which “relative binding free energy” value is on record?
The value was 0 kcal/mol.

With TTATCCACGTGTTTAT as the sequence, how does the “relative binding free energy” value read?
The value was -0.02 kcal/mol.

Which “relative binding free energy” value does the source give for GGGATCACGTGTGGCG here?
Its value is 0.29 kcal/mol.

With GAGGACACGTGGAGGA as the sequence, how does the “relative binding free energy” value read?
The value was 0.06 kcal/mol.

GGACGCACGTGTTTGT was tested. Which “relative binding free energy” value did it give?
Its value is -0.07 kcal/mol.

With GGTGGCACGTGGGTGA as the sequence, how does the “relative binding free energy” value read?
The value was -0.08 kcal/mol.

How did the “relative binding free energy” value turn out when CGGGACACGTGGCGAG was run?
Its value is -0.04 kcal/mol.

How did the “relative binding free energy” value turn out when ATGGCCACGTGTGGGG was run?
Its value is -0.03 kcal/mol.

Which “relative binding free energy” value does the source give for TAGTTCACGTGGCAAG here?
Its value is 0.09 kcal/mol.

TTCCGCACGTGTGTGT was tested. Which “relative binding free energy” value did it give?
The value was 0.02 kcal/mol.
